# Measured values from paper PMC12136788.
# The other results are listed elsewhere or left out.
# T1: UNK ZnF1-6 (called full-length) (human, UniProt Q9C0B0 30-357)
# T1 sequence: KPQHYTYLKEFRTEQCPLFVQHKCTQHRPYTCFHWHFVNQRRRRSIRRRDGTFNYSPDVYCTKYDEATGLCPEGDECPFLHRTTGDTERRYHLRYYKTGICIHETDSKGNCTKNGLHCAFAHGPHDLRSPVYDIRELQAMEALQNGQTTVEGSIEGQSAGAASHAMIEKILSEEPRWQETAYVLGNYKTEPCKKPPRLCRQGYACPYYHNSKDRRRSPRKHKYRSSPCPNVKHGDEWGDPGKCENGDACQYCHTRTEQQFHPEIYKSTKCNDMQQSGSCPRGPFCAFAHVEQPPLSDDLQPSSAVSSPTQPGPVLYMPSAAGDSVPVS
# B1: chr8:65724783:65724899:-|CDS|ENSG00000205268|unk|FALSE|unique (ssRNA)
# RNA: GGGAGUUCUACAGUCCGACGAUCAUAGGUGCUCUGAUACUAGCCACAGACAUCAGUCGCCAGAAUGAGUAUCUGUCUUUGUUUAGGUCCCAUUUGGAUAGAGGUGAUUUAUGCCUAGAAGACACCAGACACAGACAUUUGGUUCAACAGAGGAUUGAGCAUCA
# B2: chr7:74195289:74195308:+|CDS_3pUTR|ENSG00000106682|msi1_unk|FALSE|overlapping (ssRNA)
# RNA: GGGAGUUCUACAGUCCGACGAUCGCGACGCCCCUCAAUCAAGUAGCCAAUCCCAACUCUGCUAUCUUCGGGGGUGCCAGGCCUAGAGAGGAAGUCGUUCAAAAGGAGCAAGAAUGAGCCUGCGGUUGGGAGGGAAUGGGGCGUCAACAGAGGAUUGAGCAUCA
# B3: chrX:65741246:65741425:+|3pUTR|ENSG00000147065|msi1|total|mutant (ssRNA)
# RNA: GGGAGUUCUACAGUCCGACGAUCUAUUAUGUACUCUACUGAUAUCUAAAUAUUGAUUUCUGCCUUCCUUGCUAAUGCACCAUCCGAAGAUAUCCGUCUUGGGGCAGGAUGAUUUUGGCCUCAUUACUUUACCACCCCCACACCCAACAGAGGAUUGAGCAUCA
# B4: chr19:811491:811550:+|3pUTR|ENSG00000011304|msi1_unk|FALSE|overlapping (ssRNA)
# RNA: GGGAGUUCUACAGUCCGACGAUCUAGCAAUAUUUCCAGUUGACCAAAUAUUCUAAUCUUUUUUCAUUUAUAUGCAAAAGAAAUAGUUUUAAGUAACUUUUUAUAGCAAGAUGAUACAAUGGUAUGAGUGUAAUCUAAACUUCCCAACAGAGGAUUGAGCAUCA
# B5: chr1:159061598:159062691:-|three_prime_utr|ENSG00000163568|control|control|control (ssRNA)
# RNA: GGGAGUUCUACAGUCCGACGAUCUCAAUCAGAUUGUAAGUUACCUGAAAGCUGCAGUUCACAGGCUCCUCUCUCCACCAAAUUAGGAUAGAAUAAUUGCUGGAUAAACAAAUUCAGAAUAUCAACAGAUGAUCACAAUAAACACAACAGAGGAUUGAGCAUCA
# B6: ENSG00000198589:be:win_1801|CDS|ENSG00000198589|bound_else_gene|NA|bound_elsewhere_windowed (ssRNA)
# RNA: GGGAGUUCUACAGUCCGACGAUCACAGUCAACAUAUAUAACACCAUUCGGAGAGUUGGAACAGUGCUUCUCAUCAUGCACACGCUGAAGUACUACUACUGGGCAGUGAAUCCUCAGGAUCGAAGUGGUAUCACCCCAAAAGGACAACAGAGGAUUGAGCAUCA
# B7: chr1:89935720:89935824:+|3pUTR|ENSG00000171492|msi1|FALSE|bound_elsewhere (ssRNA)
# RNA: GGGAGUUCUACAGUCCGACGAUCUACAAGAUAAUGCAUUUUAGGAGUAGAUACAUCUUUUAAAAUAAAACAGAGAGGAUGCAUAGAAGGCUGAUAGAAGACAUAACUGAAUGUUCAAUGUUUGUAGGGUUUUAAGUCAUUCAUCAACAGAGGAUUGAGCAUCA
# B8: chr4:138167974:138168075:-|3pUTR|ENSG00000151012|msi1|FALSE|unique (ssRNA)
# RNA: GGGAGUUCUACAGUCCGACGAUCCACAAAAUCUGCAUUGUCCAUGUGAGUAAAGUAAAAUAAUUCCUGUUAUUUUUUUCUGUUAGAAAUAAGUAUGGAGGAUAUGUUUUUAAAAAUUUAUGAGUUAAUUGAAAUAUCCAUAUACAACAGAGGAUUGAGCAUCA
# B9: chr17:5489330:5489445:+|CDS|ENSG00000167842|unk|FALSE|unique (ssRNA)
# RNA: GGGAGUUCUACAGUCCGACGAUCACGUUGACUUUCUUUGAUGAGCUUCAUAAUGUUGGCAGAGAUCAUGGGACUAGUGAUUUUAGGGAGAGUUUAGUAUCCCUGGUUCAGAACUCCAGAAAACUACAGAACAUUAGAGACAAUCAACAGAGGAUUGAGCAUCA
# B10: chr1:178442813:178442920:+|CDS|ENSG00000075391|unk|total|mutant (ssRNA)
# RNA: GGGAGUUCUACAGUCCGACGAUCAAAGCAGACAAUAUUUUCUGGGGCGAACAUUUUGAAUUCUUCAGCCUUCCACCUCUUCACCGUAUCACAGUUCACAUUUACAAGGAUGUGGAAAAAAAGAAAAAAAAGGACAAGAAUAAUCAACAGAGGAUUGAGCAUCA
# B11: chr12:50222030:50222167:-|CDS|ENSG00000050405|unk|total|mutant (ssRNA)
# RNA: GGGAGUUCUACAGUCCGACGAUCAUCCAGGCAUGAAGCCGAAAAAUCAGAAAUCAGUGAAAACACAGAUGCUUCGGGCAAAACCGAGAAAUAUAAUGUUCCGCUGAACAGGCUUAAGAUGAUGUUUGAGAAAGGUGAACCAACCAACAGAGGAUUGAGCAUCA
# B12: chr2:48379045:48379146:+|3pUTR|ENSG00000170802|unk|FALSE|unique (ssRNA)
# RNA: GGGAGUUCUACAGUCCGACGAUCCCUUAUCCUCUUUUCUGAUGUAGCAUAAAAAUUGUCCCGGUUUGAGUUAUAACUGCCAGUAGAUGACCAGUCACAAGUGAACCACUUCUCAGUUGCCAAUCUUUGCUCAUAUUAAAAACACAACAGAGGAUUGAGCAUCA
# B13: chr10:110135209:110135310:+|3pUTR|ENSG00000148700|msi1|total|mutant (ssRNA)
# RNA: GGGAGUUCUACAGUCCGACGAUCCUCUCUAUUGGAAGAUUUUUUUAAUGUUCUACAUCAUUUAUGUUGUAUUACAAUGUAUGCCGAAACCGUAACCUGUGAACUAUGCUUUUCCAUAACUUUUUAAAAAUAUAUAUAUCUAAACAACAGAGGAUUGAGCAUCA
# B14: chr8:42175261:42175472:-|3pUTR|ENSG00000104368|msi1|FALSE|unique (ssRNA)
# RNA: GGGAGUUCUACAGUCCGACGAUCGUAUUCCUUUUGUGUACAGUGUGUAAAGUGUAAAUCCUUUUUCUUUAUAAACUUUAGAGUAGCAUGAGAGAAUUGUAUCAUUUGAACAACUAGGCUUCAGCAUAUUUAUAGCAAUCCAUGCAACAGAGGAUUGAGCAUCA
# Biological target: T1, UNK ZnF1-6 (called full-length)
# Assay: nsRBNS (natural sequence RNA bind-n-seq); RBNS binding buffer (assumed for nsRBNS): 25 mM Tris pH 7.5, 150 mM KCl, 3 mM MgCl2, 0.01% Triton X-100, 500 ug/ml BSA, 20 U/ml SUPERase-In, 4 C; UNK is unkempt and MSI1 is Musashi-1; names of the RNAs are library labels; protein concentration not given here; high values mean tight binding
row,Binder,binding signal [enrichment R]
1,B1,0.589
2,B2,0.875
3,B3,0.759
4,B4,0.832
5,B5,1.86
6,B6,0.542
7,B7,0.993
8,B8,1.08
9,B9,2.14
10,B10,0.497
11,B11,0.353
12,B12,0.685
13,B13,2.61
14,B14,4.78
